{"sequences": {"note": "Sequences of proteins named here, by UniProt entry; tags and fusion partners are left off. A change or cut given only in a name is not applied to a line headed by its entry.", "UniProt Q68E01": "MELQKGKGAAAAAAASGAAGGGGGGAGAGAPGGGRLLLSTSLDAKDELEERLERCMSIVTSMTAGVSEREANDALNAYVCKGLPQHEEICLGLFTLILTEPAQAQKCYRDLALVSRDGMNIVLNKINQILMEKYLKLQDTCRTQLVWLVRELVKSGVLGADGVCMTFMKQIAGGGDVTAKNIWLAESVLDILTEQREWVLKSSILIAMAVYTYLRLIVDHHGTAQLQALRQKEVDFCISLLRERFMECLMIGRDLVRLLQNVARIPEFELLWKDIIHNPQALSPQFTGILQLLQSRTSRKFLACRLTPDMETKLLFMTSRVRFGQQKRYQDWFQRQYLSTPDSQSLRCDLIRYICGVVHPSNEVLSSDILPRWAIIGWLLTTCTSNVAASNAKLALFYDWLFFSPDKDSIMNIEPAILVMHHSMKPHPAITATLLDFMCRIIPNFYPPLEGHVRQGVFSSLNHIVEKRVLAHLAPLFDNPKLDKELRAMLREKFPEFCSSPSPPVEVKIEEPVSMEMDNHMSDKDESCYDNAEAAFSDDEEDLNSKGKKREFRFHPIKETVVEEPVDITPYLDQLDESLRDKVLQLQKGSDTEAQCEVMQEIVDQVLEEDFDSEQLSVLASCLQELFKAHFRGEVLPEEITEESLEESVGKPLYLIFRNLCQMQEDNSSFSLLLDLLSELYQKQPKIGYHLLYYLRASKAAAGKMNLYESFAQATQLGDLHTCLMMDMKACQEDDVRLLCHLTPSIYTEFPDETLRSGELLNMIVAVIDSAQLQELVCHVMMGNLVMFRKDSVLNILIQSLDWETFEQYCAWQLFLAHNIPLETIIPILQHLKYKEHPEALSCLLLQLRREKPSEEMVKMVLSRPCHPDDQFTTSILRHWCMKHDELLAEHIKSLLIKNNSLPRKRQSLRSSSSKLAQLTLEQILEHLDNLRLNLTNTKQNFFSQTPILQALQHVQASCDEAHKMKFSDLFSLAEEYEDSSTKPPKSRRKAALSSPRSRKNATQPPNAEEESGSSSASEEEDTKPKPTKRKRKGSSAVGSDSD", "UniProt P09874": "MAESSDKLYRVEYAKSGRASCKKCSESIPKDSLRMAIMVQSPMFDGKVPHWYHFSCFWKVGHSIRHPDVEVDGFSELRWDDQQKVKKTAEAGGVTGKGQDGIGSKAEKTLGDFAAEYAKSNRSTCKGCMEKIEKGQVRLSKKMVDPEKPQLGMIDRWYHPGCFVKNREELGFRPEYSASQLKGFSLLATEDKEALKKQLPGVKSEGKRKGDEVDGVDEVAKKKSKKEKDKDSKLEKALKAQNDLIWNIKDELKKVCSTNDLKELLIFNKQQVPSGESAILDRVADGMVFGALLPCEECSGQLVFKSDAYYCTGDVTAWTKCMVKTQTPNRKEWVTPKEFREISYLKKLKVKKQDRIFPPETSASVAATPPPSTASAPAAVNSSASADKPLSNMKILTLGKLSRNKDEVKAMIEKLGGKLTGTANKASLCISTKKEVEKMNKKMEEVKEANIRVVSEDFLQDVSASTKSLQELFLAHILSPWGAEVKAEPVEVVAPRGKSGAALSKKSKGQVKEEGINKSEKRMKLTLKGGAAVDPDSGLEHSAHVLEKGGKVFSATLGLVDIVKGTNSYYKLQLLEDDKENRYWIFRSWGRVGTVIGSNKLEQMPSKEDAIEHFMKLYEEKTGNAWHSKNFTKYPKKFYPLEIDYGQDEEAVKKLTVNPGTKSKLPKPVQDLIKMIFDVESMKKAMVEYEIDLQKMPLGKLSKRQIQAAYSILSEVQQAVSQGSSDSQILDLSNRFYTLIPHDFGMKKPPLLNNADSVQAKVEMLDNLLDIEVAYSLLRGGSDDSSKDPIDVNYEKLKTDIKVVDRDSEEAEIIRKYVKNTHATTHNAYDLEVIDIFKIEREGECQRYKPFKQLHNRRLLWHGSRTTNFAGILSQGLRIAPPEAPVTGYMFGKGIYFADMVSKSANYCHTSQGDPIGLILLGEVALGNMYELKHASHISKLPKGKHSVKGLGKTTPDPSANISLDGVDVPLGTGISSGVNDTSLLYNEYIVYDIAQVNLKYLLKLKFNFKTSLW"}, "source": "paper PMC9600911", "molecules": {"B1": {"name": "Integrator subunit 3 (IntS3), endogenous in Drosophila S2 cells (protein, UniProt Q7PLS8 1-1068)", "chain": "MEQQQSKNNAHVSKLFICTAVDCKDDIEEKFERSFVTLQMQISGLSDKEMHDMLSQAVCKEKQHEEISIGFLYIMLTDPSMASKTYRDVTLVSRDGMNGIVTNLTFLVAEKYTKLTEVARRQLIWLLREFVKHQVLSVENVIWNCLRQAGGGDVSSRNLFLIESLLDIFIEFRTWLETNPFLVQSTVYSFVRLIEDHANPALLSLRQKEVKFTISLIRERFHDIIPLGRDFVRLLQNVARIPEFEQLWRDILFNPKMLHQTFNGIWQLLHIRTSRRFLQCRLLPEMERKISFLASSVKFGNQKRYQDWFQDKYFATPESHSLRSDLIRFIINVIHPTNDMLCSDIIPRWAIIGWLISSCTNPIASANAKLSLFYDWLFFDPAKDNIMNIEPGILVMYHSIRNHPFVSSTLLDFLCRITKNFFVKHEDKIRIGVYNSLKLILEKQVIPNLQPLFESPKLDRELRNLIRDNFREFLSPPANHGQLLFTSLHPVQGHILKKESDQRILHCENMDLHETGLINISGTIDEDKKILLVPTDQEIESVFSDETAENLRRVHNIEDNTDDDDDLPLSEVRLKEKPKVELAEAIAESFDAFVTKRNSYTWEAFLKDFRPLPASAFEEFQLNYVISNTVLILRETLPQQNIFSESKTEEKHLAKSISYPLYGLFRFLYENDEKSKKPFQTLLSEICEGIPEIGYLLLYFMKIYCKLQTRKNSQQSYQFKTTIYRQICDAADEKIGNCLLRDLDLLEKENTNIFLWLLPDIYREFKSIATNNTDLLRITLRCIDAKNVRDILYSIAQGKLTIFKQDGLIDCIRQSLEFETYEQFCLWQIVQAHDVPLRCIQDILPELEAGSHPEALSHFLLLLKNEEPTNEIIRLMLSRESKSKGDPFVTSALRFWCQRYEEKLSEIIASLLTSKYPSSSPNKRKRPPKGISVSTSTPSADQVLNHLEHYRRSCRHGTGTGLYVHDMMQRALQSAYSHSNDSTKKQFCDLFALAAEEDTTVGRRGGSGRGRKQPGSKKDVNNHGTSKKNPEMVKTIYSSDDNSSEEDWSKSKILQTAKRRKKANNDSD"}, "B2": {"name": "PARP1 (poly (ADP-ribose) polymerase 1), endogenous in Drosophila S2 cells (protein, UniProt P35875 1-994)", "chain": "MDIELPYLAEYARTGRATCKGCKSTISKDTLRIAVMVQSAFHDAKVPNWFHKTCFFKNQRPSSVGDIQNIGNLRFADQKELTDLVENIQEVISAQLGKKRSKAFNLALKDFGIEYAKSSRSTCRGCEQKINKDLVRLRKTVYDTEVGMKYGGQPLWHHLECFAQLRSELGWFASGEDMPGFQSLADDDQAKVKNAIPPIKSEELPDTKRAKMELSDTNEEGEKKQRLKDQNDAYFRFRDDIKNKMKKKDIDILLKFNNQQPVTGDTEKLFDQTADLLTFGAIESCSECNSCQFIVNKSGYICNGNHSEWTKCNKLLKEPTRSACIVPKELKALYNFLNTVKEIPSTRIFNNFPPNKSTFSRSLLKTNKNNDVLVRPTIPRISPPLYNLKFSIIGLKNQHKELRKRIENLGGKFEVKISENTIAIISTELEIQKKSTRMKFAEELGIHIVPIEFLDFVEADTEGAIKYINSTCICSWGTDPKSRIPKETTKSLNSNSIYTKSMPVSRTFKVKDGLAVDPDSGLEDIAHVYVDSNNKYSVVLGLTDIQRNKNSYYKVQLLKADKKEKYWIFRSWGRIGTNIGNSKLEEFDTSESAKRNFKEIYADKTGNEYEQRDNFVKRTGRMYPIEIQYDDDQKLVKHESHFFTSKLEISVQNLIKLIFDIDSMNKTLMEFHIDMDKMPLGKLSAHQIQSAYRVVKEIYNVLECGSNTAKLIDATNRFYTLIPHNFGVQLPTLIETHQQIEDLRQMLDSLAEIEVAYSIIKSEDVSDACNPLDNHYAQIKTQLVALDKNSEEFSILSQYVKNTHASTHKSYDLKIVDVFKVSRQGEARRFKPFKKLHNRKLLWHGSRLTNFVGILSHGLRIAPPEAPPTGYMFGKGIYFADMVSKSANYCCTSQQNSTGLMLLSEVALGDMMECTSAKYINKLSNNKHSCFGRGRTMPDPTKSYIRSDGVEIPYGETITDEHLKSSLLYNEYIVYDVAQVNIQYLFRMEFKYSY"}, "B3": {"name": "cyclin T1 (CycT1, a member of the P-TEFb complex), endogenous in Drosophila S2 cells (protein, UniProt O96433 1-1097)", "chain": "MSLLATPMPQAATASSSSSASAAASASGIPITANNNLPFEKDKIWYFSNDQLANSPSRRCGIKGDDELQYRQMTAYLIQEMGQRLQVSQLCINTAIVYMHRFYAFHSFTHFHRNSMASASLFLAAKVEEQPRKLEHVIRAANKCLPPTTEQNYAELAQELVFNENVLLQTLGFDVAIDHPHTHVVRTCQLVKACKDLAQTSYFLASNSLHLTSMCLQYRPTVVACFCIYLACKWSRWEIPQSTEGKHWFYYVDKTVSLDLLKQLTDEFIAIYEKSPARLKSKLNSIKAIAQGASNRTANSKDKPKEDWKITEMMKGYHSNITTPPELLNGNDSRDRDRDRERERERERDPSSLLPPPAMVPQQRRQDGGHQRSSSVSGVPGSSSSSSSSSHKMPNYPGGMPPDAHTDHKSKQPGYNNRMPSSHQRSSSSGLGSSGSGSQRSSSSSSSSSQQPGRPSMPVDYHKSSRGMPPVGVGMPPHGSHKMTSGSKPQQPQQQPVPHPSASNSSASGMSSKDKSQSNKMYPNAPPPYSNSAPQNPLMSRGGYPGASNGSQPPPPAGYGGHRSKSGSTVHGMPPFEQQLPYSQSQSYGHMQQQPVPQSQQQQMPPEASQHSLQSKNSLFSPEWPDIKKEPMSQSQPQPFNGLLPPPAPPGHDYKLNSHPRDKESPKKERLTPTKKDKHRPVMPPVGSGNSSSGSGSSKPMLPPHKKQIPHGGDLLTNPGESGSLKRPNEISGSQYGLNKLDEIDNSNMPREKLRKLDTTTGLPTYPNYEEKHTPLNMSNGIETTPDLVRSLLKESLCPSNASLLKPDALTMPGLKPPAELLEPMPAPATIKKEQGITPMTSLASGPAPMDLEVPTKQAGEIKEESSSKSEKKKKKDKHKHKEKDKSKDKTEKEERKKHKKDKQKDRSGSGGSKDSSLPNEPLKMVIKNPNGSLQAGASAPIKLKISKNKVEPNNYSAAAGLPGAIGYGLPPTTATTTSASIGAAAPVLPPYGAGGGGYSSSGGSSSGGSSKKKHSDRDRDKESKKNKSQDYAKYNGAGGGIFNPLGGAGAAPNMSGGMGAPMSTAVPPSMLLAPTGAVPPSAAGLAPPPMPVYNKK"}}, "key": {"[1]": {"molecular_target": "recombinant GST-tagged full-length IntS3 (UniProt Q68E01)", "experiment": "pull-down; GST-FL-IntS3 bound to glutathione beads, incubated with His-tagged PARP1 constructs; blot with anti-His; also with PARP1 pre-incubated with DNA or RNA for 30 min; both purified"}, "[2]": {"molecular_target": "recombinant His-tagged full-length PARP1 (UniProt P09874)", "experiment": "co-IP; recombinant His-FL-PARP1 immobilised through PARP1 antibody (legend: His antibody) on protein-G beads, incubated with GST-tagged IntS3 constructs; several stringent washes; blot with anti-GST; both purified"}, "[3]": {"molecular_target": "T1, PARP1 (poly (ADP-ribose) polymerase 1), endogenous in Drosophila S2 cells (Drosophila melanogaster (endogenous in S2)) (UniProt P35875)", "T1 sequence": "B2 chain", "experiment": "co-IP; S2 nuclear lysates; PARP1 or IntS3 antibody on protein G beads; highly stringent conditions (0.4 M KCl, 0.05% NP-40); WT and PARP1 siRNA knock-down cells; IgG control"}, "[4]": {"molecular_target": "T2, Integrator subunit 3 (IntS3), endogenous in Drosophila S2 cells (Drosophila melanogaster (endogenous in S2)) (UniProt Q7PLS8)", "T2 sequence": "B1 chain", "experiment": "co-IP; S2 nuclear lysates; PARP1 or IntS3 antibody on protein G beads; highly stringent conditions (0.4 M KCl, 0.05% NP-40); WT and PARP1 siRNA knock-down cells; IgG control"}}, "note": "No constants are given. Whether binding was seen depends on the method and setting. For some of these results: In cells and extracts the contact can be indirect. Some results given as binding are weak or reduced against the parent protein; the word gives no strength."}
{"molecule": "His-tagged PARP1 BRCT domain only (from UniProt P09874 385-476) (domain or fragment)", "values": [{"measurement": "binding", "setting": "[1]", "result": "binds"}]}
{"molecule": "recombinant GST-tagged full-length IntS3 (from UniProt Q68E01 1-1043)", "values": [{"measurement": "binding", "setting": "[2]", "result": "binds"}]}
{"molecule": "recombinant His-tagged full-length PARP1 (from UniProt P09874 1-1014)", "values": [{"measurement": "binding", "setting": "[1]", "result": "binds"}]}
{"molecule": "recombinant His-tagged full-length PARP1, auto-PARylated with NAD+ (from UniProt P09874 1-1014)", "values": [{"measurement": "binding", "setting": "[1]", "result": "binds"}]}
{"molecule": "B1", "values": [{"measurement": "binding", "setting": "[3]", "result": "binds"}]}
{"molecule": "B2", "values": [{"measurement": "binding", "setting": "[4]", "result": "binds"}]}
{"molecule": "B3", "values": [{"measurement": "binding", "setting": "[3]", "result": "no binding"}]}
